In patent US8501450B2, “Hepatitis C virus variants” (priority 2005, dated 2013):

Tests used:
[1] = molecular target: T1, mutant HCV protease V36M + R155K (Hepatitis C virus genotype 1a, UniProt P27958, R1181K/V1062M); format: biochemical; settings: apparently fold change vs wild-type
T1 construct: A DNA fragment encoding Met^1-Ser^181 of the HCV NS3 protease was amplified; made in house; host or cells: E. coli BL21 (DE3)

mutant HCV protease V36M = molecular target: T2, mutant HCV protease V36M (Hepatitis C virus genotype 1a, UniProt P27958, A1027M/V1062M); format: biochemical; settings: apparently fold change vs wild-type
T2 construct: A DNA fragment encoding Met^1-Ser^181 of the HCV NS3 protease was amplified; made in house; host or cells: E. coli BL21 (DE3)

Structure (SMILES)	Resistance, Enzyme Assay [1]	Resistance, Enzyme Assay (mutant HCV protease V36M)
CC(C)(C)NC(=O)N[C@H](C(=O)N1C[C@H]2[C@@H]([C@H]1C(=O)NC(CC1CCC1)C(=O)C(N)=O)C2(C)C)C(C)(C)C (stereo partly drawn) [SCH 503034]	39	4.4
CC(C)(C)OC(=O)N[C@H]1CCCCC/C=C\[C@@H]2C[C@@]2(C(=O)NS(=O)(=O)C2CC2)NC(=O)[C@@H]2C[C@@H](OC(=O)N3Cc4cccc(F)c4C3)CN2C1=O [ITMN-191]	220	1.9
COc1ccc2c(O[C@@H]3C[C@H]4C(=O)N[C@]5(C(=O)O)C[C@H]5/C=C\CCCCC[C@H](NC(=O)OC5CCCC5)C(=O)N4C3)cc(-c3csc(NC(C)C)n3)nc2c1 [BILN 2061]	>250	0.6
